Measured values: the supplement of paper PMC3334620
Whole data set: some 33,000 sequences, median “E-score (-0.5 to 0.5)” near -0.011, cut for the highest 2% near 0.28. The list shows a part of the results.

Target: T1, Gcr1 (UniProt P07261)
T1 sequence: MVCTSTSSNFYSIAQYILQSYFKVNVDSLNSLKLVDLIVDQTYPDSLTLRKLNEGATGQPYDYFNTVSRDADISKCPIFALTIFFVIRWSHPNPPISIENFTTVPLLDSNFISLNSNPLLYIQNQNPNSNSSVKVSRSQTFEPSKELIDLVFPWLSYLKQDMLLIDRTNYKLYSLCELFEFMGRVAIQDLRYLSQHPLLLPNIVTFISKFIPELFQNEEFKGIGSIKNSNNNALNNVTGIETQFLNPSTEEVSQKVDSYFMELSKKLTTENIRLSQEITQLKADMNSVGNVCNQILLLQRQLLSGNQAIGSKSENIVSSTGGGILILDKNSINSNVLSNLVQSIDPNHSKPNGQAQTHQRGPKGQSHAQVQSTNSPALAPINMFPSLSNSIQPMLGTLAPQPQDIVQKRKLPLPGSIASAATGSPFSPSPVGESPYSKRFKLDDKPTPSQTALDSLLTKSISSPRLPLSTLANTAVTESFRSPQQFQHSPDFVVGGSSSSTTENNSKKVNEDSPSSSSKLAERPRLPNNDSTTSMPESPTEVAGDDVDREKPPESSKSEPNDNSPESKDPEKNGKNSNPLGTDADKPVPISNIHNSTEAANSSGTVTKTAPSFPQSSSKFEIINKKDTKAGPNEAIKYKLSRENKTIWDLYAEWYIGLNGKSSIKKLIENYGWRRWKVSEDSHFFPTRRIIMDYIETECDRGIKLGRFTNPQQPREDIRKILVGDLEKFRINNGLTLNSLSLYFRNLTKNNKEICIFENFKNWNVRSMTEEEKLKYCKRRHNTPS
Assay: PBM E-score (8-mer binding enrichment) (E-score (-0.5 to 0.5)); higher = stronger / more preferred TF binding; most listed sequences are background and not binding sites
Details: protein concentration: 100 nM; construct: GST-full length
Procedure, shortened: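 Yeast transcription factors carrying a GST tag, as full-length proteins or DNA-binding domains, were produced by PURExpress in vitro transcription/translation. About 100-200 nM protein was applied to universal all-10-mer Agilent arrays, double-stranded by primer extension on fresh or once-stripped slides. Bound protein was detected with fluorescent anti-GST, and scans were normalised with masliner. The Universal PBM Analysis Suite gave each ungapped eight-base word, pooled with its reverse complement, an E-score, a modified Wilcoxon-Mann-Whitney statistic.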

| Sequence | PBM E-score |
| --- | --- |
| ATAGACGA | 0.248 |
| GGGCCGTA | -0.21 |
| AGGAGATA | -0.0392 |
| GACCAGAC | -0.179 |
| ACGCGGAG | -0.0537 |
| CGGTCCCC | -0.00143 |
| CGCTGTAG | 0.0385 |
| AACTCAGG | -0.0391 |
| ATAGCAGG | 0.0316 |
| CGTCTTAG | -0.0362 |
| AGGATTTG | -0.19 |
| TGACGTAA | -0.155 |
| CGCCTTGC | -0.0164 |
| ACATGCCA | -0.0852 |
| CCGCTCTC | -0.141 |
| CTCGTCAG | -0.0444 |
| ATAATGAA | 0.237 |
| ATTTAGGA | 0.286 |
| AAGAGTCC | 0.115 |
| CAGGCACC | 0.245 |
| GCCTCTGA | -0.0751 |
| ACCCAGAA | 0.149 |
| AAATTAGG | 0.228 |
| AGGACTAC | -0.111 |
| AATAATTC | 0.107 |

| Sequence | PBM E-score |
| --- | --- |
| ATCCCTGC | -0.0889 |
| CATAAAAC | -0.00622 |
| CCAGCTGA | -0.0822 |
| TACAGCAA | 0.0174 |
| AACCCTTA | -0.0604 |
| CGGGTTCC | 0.411 |
| AACTGAAC | 0.0622 |
| AGGAAGGA | -0.0785 |
| GCTAGGCA | -0.109 |
| ACACCTTC | -0.0029 |
| ATTCGACA | -0.165 |
| AGCCGCGG | -0.025 |
| AGGACGGC | -0.141 |
| GGGGGAGA | -0.233 |
| CCGCCTGC | -0.0217 |
| CCACTCAA | 0.13 |
| ATGTTGGG | 0.119 |
| CATGGCGA | -0.178 |
| CTACCACA | 0.126 |
| ATATGACA | 0.137 |
| TAGAAACA | 0.112 |
| TCGAGTCA | -0.00551 |
| GATATTGA | -0.0199 |
| CACCAACA | 0.0307 |
| AGTGGCTC | 0.218 |

| Sequence | PBM E-score |
| --- | --- |
| CATCTGTA | 0.0938 |
| AAGAACTA | -0.0876 |
| AGGTACAG | -0.0694 |
| TCACAACA | -0.00323 |
| GTCGCCAA | 0.109 |
| GAATTTAA | 0.0974 |
| CCGGCAGC | 0.292 |
| AGGCTCCG | 0.0454 |
| ATACACAA | -0.0947 |
| AAACGGGG | 0.111 |
| GCTGTAAA | -0.109 |
| ATCGCAGC | 0.0295 |
| CGTCTGGC | 0.103 |
| CTACGCAG | 0.0122 |
| ATCAAGGC | -0.162 |
| CCGGGGTC | -0.198 |
| ATGGCTGG | -0.226 |
| ACATCCGT | -0.113 |
| CACCAGCA | -0.0137 |
| CTCAGCAC | 0.00162 |
| GATCACCA | -0.0057 |
| ACGCAACA | 0.12 |
| CCTGGAAA | 0.0979 |
| CGGGTTGA | 0.05 |
| AAACGGCC | -0.0753 |

| Sequence | PBM E-score |
| --- | --- |
| GTGATGCA | -0.129 |
| GCTACCTA | 0.207 |
| GTTCCCTA | -0.0507 |
| ACTACGAA | -0.0169 |
| CCTTCGCA | -0.0622 |
| TACGCGTA | 0.239 |
| GTGGAGAA | 0.0248 |
| AGTCCGCA | 0.0295 |
| CGTCCGTC | -0.127 |
| AACGTCCG | 0.035 |
| GATCACTA | -0.0518 |
| CGATAATA | -0.0596 |
| TAAATTTA | 0.239 |
| TCTTGTCA | -0.00081 |
| CACGATGC | 0.273 |
| AGTTTAGG | 0.148 |
| AACCATCT | 0.0565 |
| TAAAGCGA | 0.0457 |
| ATGGGTAC | 0.189 |
| ACAAAAGA | 0.161 |
| CTTCGTCC | -0.1 |
| GAGCGGTA | 0.0726 |
| CATAGATC | -0.174 |
| CGGAAAAC | -0.121 |
| GCTGATAA | -0.015 |

| Sequence | PBM E-score |
| --- | --- |
| GGACTACA | -0.189 |
| CCCCTCGC | -0.0727 |
| AATGCAGA | 0.0129 |
| CGTTCGAA | -0.208 |
| ATTCGTCG | 0.0418 |
| ATTACAAT | -0.00128 |
| CGCATGAG | -0.236 |
| AACGTATA | 0.0713 |
| AAACTACG | -0.00816 |
| AACTAAAA | 0.145 |
| CACTCCCA | -0.00658 |
| TGGTGTAA | -0.106 |
| ATAGTAGC | 0.286 |
| ATTTCTCC | 0.0503 |
| AACTTTCT | -0.0828 |
| CGTGGCCA | -0.274 |
| CCATTTTA | 0.23 |
| GGAAGGCA | 0.0904 |
| AATGCGCC | -0.0609 |
| GTGTGACA | -0.168 |
| CGGATCGC | -0.0306 |
| GGACGGCA | 0.0408 |
| ATCAGGAC | 0.101 |
| AGGTTTCG | -0.0991 |
| CTGACAAC | 0.209 |

| Sequence | PBM E-score |
| --- | --- |
| AGTATGGC | 0.0308 |
| GGAGCACC | 0.0936 |
| ATCGAGTG | -0.0784 |
| ACTTGCCG | -0.176 |
| AAGCTGAA | 0.129 |
| CGACCACG | -0.0758 |
| CTGCAGCC | -0.167 |
| ACGGCTTC | 0.238 |
| GAGAATGA | -0.0541 |
| GTTGATAA | 0.12 |
| GGCCTCCA | 0.172 |
| AAGGTGCC | 0.144 |
| ATCGCCGC | 0.136 |
| GTCCGCGA | -0.0691 |
| CGATGAAG | -0.0585 |
| ATCTTCCG | -0.0893 |
| ACCGATCT | -0.0886 |
| AAGCATCG | 0.0291 |
| AGACGAAT | 0.0336 |
| GCCCCCGA | -0.0188 |
| ATTTCTTA | 0.12 |
| ACTGTTGG | -0.0983 |
| TAATAGCA | 0.0558 |
| ATACAAAT | 0.118 |
| CGTAAACG | -0.0302 |

| Sequence | PBM E-score |
| --- | --- |
| CTTGGGAC | -0.187 |
| ATAGCACA | -0.11 |
| ACGGTTAC | 0.0551 |
| AGGTGTAT | 0.00166 |
| ATGATATA | -0.0438 |
| CTACTCCC | -0.0747 |
| ATTTAGTG | 0.202 |
| CCTTAACA | -0.0631 |
| AGGGGATA | 0.00288 |
| CCGCAATC | 0.00513 |
| AGAGTCTC | -0.132 |
| CCGACAGC | -0.308 |
| ATACGAAG | 0.293 |
| AAATAAAC | 0.0476 |
| CGGGTTGC | 0.0657 |
| GACCGCCC | -0.0967 |
| ACCGTTTC | 0.166 |
| CTACCGTA | -0.0889 |
| AAGTCTGT | -0.321 |
| CAGCGCTG | -0.245 |
| CCGTAGGA | -0.0831 |
| AAACAGGA | 0.363 |
| GCCAACGC | -0.0929 |
| GATCAATC | -0.0368 |
| CTAACCAG | 0.0668 |

| Sequence | PBM E-score |
| --- | --- |
| CAAATATG | 0.0833 |
| AAGACGAA | 0.131 |
| ATCTCTCC | -0.112 |
| TAATGCAA | -0.0298 |
| CTACTAGA | 0.0802 |
| CCCTTTAG | -0.172 |
| AGTTGGAG | 0.184 |
| CCACTAAA | 0.314 |
| ACAACGCA | -0.169 |
| ACCCATTG | -0.0358 |
| ACGTTGCC | 0.24 |
| GCAACCAC | 0.267 |
| GAACTGAC | -0.11 |
| CTGGTCTC | 0.0542 |
| GATTGGAC | 0.0723 |
| ATCCGTCG | -0.0346 |
| TAATCCCA | 0.133 |
| CCTAGAAC | 0.00071 |
| CCTATCTA | -0.0661 |
| ATGGAATA | 0.0994 |
| AAAACCAG | 0.146 |
| AATACCCC | -0.119 |
| CGCCTCAG | -0.185 |
| ATTTGATC | 0.0352 |
| CAACGCGC | 0.122 |

| Sequence | PBM E-score |
| --- | --- |
| ACGGTGAT | -0.134 |
| AGCAACAA | 0.0591 |
| ACAGAGCA | 0.0958 |
| ACTCATTA | 0.0625 |
| GTCCTCGA | -0.0784 |
| ATATTGCG | 0.0339 |
| AATATCTC | -0.0376 |
| ACTAGGCA | 0.0179 |
| GTCCGGAA | 0.106 |
| TGCAGTAA | 0.00947 |
| ACCGTGGG | -0.00593 |
| CATCGTGG | 0.0334 |
| ATTTTGCC | -0.00703 |
| ATTGGGTG | 0.085 |
| ACAGAGAT | 0.0182 |
| CACGCACG | 0.0016 |
| AATGTAGC | 0.0261 |
| ACATACTC | -0.169 |
| ACGGCAGC | 0.101 |
